Drawing on paper PMC12136788, this text covers binding signal for 14 molecules.

The other results are listed elsewhere or left out.

T1: UNK ZnF1-3 (human, UniProt Q9C0B0 31-174)
T1 sequence: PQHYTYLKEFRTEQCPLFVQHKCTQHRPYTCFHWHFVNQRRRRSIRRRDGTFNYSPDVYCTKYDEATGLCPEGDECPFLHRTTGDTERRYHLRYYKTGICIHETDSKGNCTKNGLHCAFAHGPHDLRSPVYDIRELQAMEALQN

B1: chr5:138643207:138643208:+_ENSG00000015479_ENST00000510056|hu_mus|motif|central (ssRNA)
RNA: GGGAGUUCUACAGUCCGACGAUCCAUCCUUCCAAGAGAUGCUGGCAUACUUAAAGACUGGGUAGCAGCAGCAAGAAGGCCGGUUCCUGCUGCAGACAGGUCACGCCCAUGACCCUGUGAAUCCCUACCGAGAGAUGACUGCUGCAACAGAGGAUUGAGCAUCA
B2: chr4:144460044:144460045:+_ENSG00000153147_ENST00000283131|hu_mus|motif|central (ssRNA)
RNA: GGGAGUUCUACAGUCCGACGAUCACGGUCCAUAGCCUGAAGAUCAACUUGCGGAUUCCAAUCUGAGUCAUAUAAAAUGACGGCAUCAGCAGUUGCAAGAUUGAUGCCCAGACCACCAGCACGUGUGCUUAGCAUAAAUACAAACAACAGAGGAUUGAGCAUCA
B3: chr1:74670475:74670476:+_ENSG00000254685_ENST00000370898|hu_hu|FALSE|FALSE (ssRNA)
RNA: GGGAGUUCUACAGUCCGACGAUCGUCCUGUUGACAAAAAUUUCCAGGUCUACACACAGCAUUAAACUGAUACAUCUUUUCUAUGCUGGGCUUAUGAAGGAAACGAUGGCAAGACCUGUAUUCAAGGUCUCUAUGUUUUAAAUCCAACAGAGGAUUGAGCAUCA
B4: chr3:167437968:167437969:-_ENSG00000114209_ENST00000497056|hu_mus|FALSE|FALSE (ssRNA)
RNA: GGGAGUUCUACAGUCCGACGAUCUUCAUCUCUUCCAUUGUCAUCCUCAUUCAAAAGCCAACUACAGUAGAAAAAGCAAUGCUAAAAUGCAGAGGAAUCUUCAUUCACUGCCGAAUUUCUUCCCUUUUUUAUGUGUAUGUGAUACAACAGAGGAUUGAGCAUCA
B5: chr11:33163239:33163240:-_ENSG00000176102_ENST00000323959|hu_hu|FALSE|FALSE (ssRNA)
RNA: GGGAGUUCUACAGUCCGACGAUCUCUGCCAGAACUGGGGAACUGGGCAACAAGGCGUUCAUAAGUCUUCCGUGCUUUGUCUAUAGGUUGAUUCUGUGCCUCUCGAAUGAGAAUGCUCCAAGCAUCAAGGUCAUAUGGAUUCUCCAACAGAGGAUUGAGCAUCA
B6: 153236936_153237056_1815_3pUTR_ENSMUSG00000061411_ENSMUST00000109784|mouse|control|control (ssRNA)
RNA: GGGAGUUCUACAGUCCGACGAUCUAAGGGGAGAGAAAGGGUCCACUUUUGCUCUUCUCAAUAAAUAUGCAAUUCUGCUCACCUAAGACUUGAAAGGUAAUUAUGGGGGGGGGGAGUUCUAACAUCGUGGUCCACAAAGGUGAUCAACAGAGGAUUGAGCAUCA
B7: chr9:19447105:19447106:+_ENSMUSG00000057551_ENSMUST00000079042|mus_mus|motif|central (ssRNA)
RNA: GGGAGUUCUACAGUCCGACGAUCUAGGUGUGAGAUGAGGCGGGGUUUGCCAACCUGAUAACCCAGUGAACUUAGAUUGCGGUAAUUCUCCAGCAUUACAUCUUUGUACAGUUUUCUCUGGGAAGAAUCUAGCAGGGGCCACUCCAACAGAGGAUUGAGCAUCA
B8: chr7:151048522:151048523:+_ENSG00000013374_ENST00000566856|hu_mus|hu_hu_hu_mus_True|1_48 (ssRNA)
RNA: GGGAGUUCUACAGUCCGACGAUCCUGUUUCUUAUUUAUUACGAUCUUGAUGUAAUUUUCUUGAAAUCCGAAAGUUUCAGCUAUUUGGGACCUCAGUUCUCUACCAGUGACAUGCAAGCGGGUCUCCAACAAGCUUUUCCUAUCCAACAGAGGAUUGAGCAUCA
B9: chr2:198351390:198351391:-_ENSG00000144381_ENST00000345042|hu_hu|hu_hu_hu_mus_False|48_58 (ssRNA)
RNA: GGGAGUUCUACAGUCCGACGAUCUCAUUCCCACCCUCCACAGAAAGGCUGCUUCUGAACUCUCAUGUGGUGACACAGCACUAAAAUCCUGAUUUUAACAGAACAGUAGAGAUGCCUCAGUGAUUUAAGUUGAAAGCAGGACACCAACAGAGGAUUGAGCAUCA
B10: chr4:144391305:144391306:+_ENSG00000109458_ENST00000262995|hu_hu|FALSE|FALSE (ssRNA)
RNA: GGGAGUUCUACAGUCCGACGAUCGGCACUAUGGUGUCAAAAGACAGAAUUUCAUAGAGUAAUAAAUCUGAAUUACUAUCUAAUUAAAAAUCACAGUAUGUUGCUGUAACUAACAGUGAAUGUCAACUGCUUUAUUAAUUCCAACAACAGAGGAUUGAGCAUCA
B11: chr19:42637464:42637465:+_ENSMUSG00000025184_ENSMUST00000026188|mus_mus|FALSE|FALSE (ssRNA)
RNA: GGGAGUUCUACAGUCCGACGAUCAGUCUGAACUUCCCAACAGUCCAUGUCCUUUGGUUUAAAAAGUCUUUGUAAAGGUAUACUAGAUACAAUCCCAGCGUCGGGAGCUCUGUGUUGAUGUUCUUGGGAUGAGGCUUCUGUGGACAACAGAGGAUUGAGCAUCA
B12: chr1:60041781:60041782:+_ENSMUSG00000041040_ENSMUST00000036540|mus_hu|mus_mus_mus_hu_False|58_108 (ssRNA)
RNA: GGGAGUUCUACAGUCCGACGAUCAAGAGGAGUGAAUUAAAGUAAAUGCAGUAGUGGCAAAUUUUCUUUUAUUUUCCUUCCUAAAAGAAAAUCUUUAUAACCCAGUCCUAGUCUUGGACAUAGUGAAAGCUAUAAAUUCUGACUCAACAGAGGAUUGAGCAUCA
B13: chr12:39756943:39756944:-_ENSG00000139116_ENST00000544797|hu_mus|hu_hu_hu_mus_False|38_98 (ssRNA)
RNA: GGGAGUUCUACAGUCCGACGAUCGGUUUGGCUGUUACCCCCGAGGGAAUCCUGCAAGAGUCUUGUCAGCUUAGAGUCUCUGUAAGGGACAUGGGUGGCCCUCUUGCUCUUGUCCCCCAAGGCGCUGAUUACAUUCCCAAGAGCCAACAGAGGAUUGAGCAUCA
B14: chr1:149898447:149898448:-_ENSG00000143368_ENST00000271628|hu_hu|FALSE|FALSE (ssRNA)
RNA: GGGAGUUCUACAGUCCGACGAUCAAGUCGUUCGGCUGCUGAGCCAUGGCGCUCACCCUUGGAGUCCUUCUUGAAGGCAUAAGAUACGGUGAUAGGACGGUUACAGAGGUACUGCCCAUUCAUGGCUUCAAUUGCUGCAUCCGACAACAGAGGAUUGAGCAUCA

The target of this test is T1, UNK ZnF1-3. The test can be described thus: nsRBNS (natural sequence RNA bind-n-seq); RBNS binding buffer (assumed for nsRBNS): 25 mM Tris pH 7.5, 150 mM KCl, 3 mM MgCl2, 0.01% Triton X-100, 500 ug/ml BSA, 20 U/ml SUPERase-In, 4 C; UNK is unkempt and MSI1 is Musashi-1; names of the RNAs are library labels; protein concentration not given here; high values mean tight binding.
Molecule B1 registered a binding signal of 0.808 enrichment R.

Turning to B2, the binding signal was found to be 1.05 enrichment R.

The molecule B3 returned a binding signal of 1.21 enrichment R.

For the molecule B4, the binding signal turned out to be 1.35 enrichment R.

Molecule B5 had a binding signal of 0.635 enrichment R.

The molecule B6 came in with a binding signal of 1.31 enrichment R.

As to B7, the binding signal is 1.09 enrichment R.

Molecule B8 came in with a binding signal of 0.619 enrichment R.

On to B9, for which the binding signal was 1.24 enrichment R.

B10 had a binding signal of 0.504 enrichment R.

In the case of B11, the binding signal stood at 1 enrichment R.

Turning to B12, the binding signal turned out to be 0.747 enrichment R.

B13 returned a binding signal of 0.736 enrichment R.

In turn, B14 registered a binding signal of 0.815 enrichment R.
